In a collection of fitness landscapes (doi:10.1016/j.celrep.2020.107928):
Over roughly 81,000 sequences, “one-hybrid fitness for binding NBS DNA” has its median near -0.1; the highest 2% begin near 0.36. The list shows a part of the results.

B1: Caulobacter ParB omega fusion; a variant is named by its letters at X, in order, B8GW30 (parent)
chain: MESVVVGEPGMSEGRRGLGRGLSALLGEVDAAPAQAPGEQLGGSREAPIEILQRNPDQPRRTFREEDLEDLSNSIREKGVLQPILVRPSPDTAGEYQIVAGERAWRAAQRAGLKTVPIMVRELDDLAVLEIGIIENVQRADLNVLEEALSYKVLMEKFERTQENIAQTIGKSXSHVANXMRLLXLPDEVQSYLVSGELTAXHARAIAAAADPVALAKQIIEGGLSVRETEALARKAPNLSAGKSKGGRPPRVKDTDTQALESDLSSVLGLDVSIDHRGSTGTLTITYATLEQLDDLCNRLTRGI

Variants of: B1
Assay: one-hybrid fitness for binding NBS DNA (the Noc-binding site; scaled: cognate 1, non-cognate 0); higher = stronger binding
Conditions: with NBS DNA site
Procedure, shortened: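 In E. coli USO, a HIS3 reporter with its site placed 19 bp from the promoter was used to select Caulobacter ParB variants randomised at four specificity codons. Growth lasted 48 hours at 37°C on histidine-free M9 containing 0.1 mM IPTG and 5 mM 3-AT. Fitness was taken as the log change in variant-to-wild-type read ratio from Illumina sequencing of pre- and post-selection plasmids, rescaled between the non-cognate and cognate sites.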

one-hybrid fitness for binding NBS DNA, 0.679:
QRDR

one-hybrid fitness for binding NBS DNA, 0.413:
QYST

one-hybrid fitness for binding NBS DNA, 0.237:
QITV

one-hybrid fitness for binding NBS DNA, 0.285:
QVVR

one-hybrid fitness for binding NBS DNA, 0.451:
QLRY

one-hybrid fitness for binding NBS DNA, 0.338:
RMKA

one-hybrid fitness for binding NBS DNA, 0.241:
IQRR

one-hybrid fitness for binding NBS DNA, ≤ 0.2:
SHKT
PIPK
SGKV
SHSG
PWPN
YHNH
TGVW
GSNY
VPQC
HWFC
HHDG
MGLR
NQKN
HRLV
HNGL
QWQS
TWQC
TRFK
STFG
PYAY
SAIC
RTMH
QVIY
AGHT
WYGG
VRWG
MTTW
GAGS
LQMS
KQWS
MNHY
KHCS
QTWH
PHKQ
AHWR
KVGA
QNQP
LHSG
LHFG
DYYR
QTAF
WKMR
NSTS
IQNF
YVYV
TISY
VAYM
YALV
ACRK
CQVT
GAER
PRCT
CTSN
SQAC
LRIR
EGTK
KNVT
RVAC
DDFT
AVST
RMGP
LYVM
RHTC
QKIY
KRWL
QLCV
GINK
PVQR
QTWP
DQLY
STPH
PCQY
YLHR
EARL
TWGG
AMAP
NMRT
PNPA
THVS
MPAS
RFHC
YAHG
YAYC
CRDG
GQCT
MYSA
PHDT
RKTM
CLHR
ETMM
MDEY
SDTG
FWAC
TSVT
APVS
YVCG
CVWR
QYGD
RNPT
YTCS
RKPA
ETQT
HRDL
NLTG
PPYG
MTLK
LDTT
HICL
QHWD
GLWV
PTCM
ASTE
PTHW
SRNA
FMVC
TMHT
PTPA
WCTT
GHLC
KAGR
MIHT
VISM
RHNP
GPLA
LHFI
IWRS
VHIS
VLLR
VHMW
RFNQ
PCFM
CIMK
TYYL
LSAN
SFMW
IQPS
VDPI
RTWC
TLLP
YYST
IRGS
SSAI
TGRV
HMPV
GWSD
ESNR
LVRN
SPQN
DYSK
LPKC
CLLT
QGTM
IRTL
AWER
AGVR
RFFP
LWLV
TQSW
TFAN
RNLN
MLLL
QEMS
CQSR
PVIA
PFLV
EVVT
WADL
QWPD
LVDM
WRLS
IRSQ
PVMQ
GGSW
LVTN
HNMS
NKNA
MHKM
GKLA
MSSG
HMTR
RWAP
PITM
FNRC
WSRM
GMTC
WTDG
IFGS
CRAY
PSGG
QNVV
RKSG
VGTG
GPED
PTCC
SDPR
QMVF
VVRY
RVMQ
CIVC
IYQL
NWYS
CMHF
LDIW
WDER
PLHF
KGGA
VEDA
LHPG
YSQN
MPPM
GEKS
RDKS
KMQR
RYVM
QMED
RQKP
QWGT
ETSS
RRGD
VMYL
PFEC
AQIR
EDKV
ASLG
QPCI
SKPP
FHPP
HHVD
RLFE
HCSS
YKKG
SSQE
EKET
VGGF
HSKS
AFFG
AAKT
YCHA
DSAS
TLYT
NEVP
AQHR
REKF
MCTV
VCMR
LSNT
TLLM
PFDT
QASF
LVNR
LPQR
VVKQ
SIKP
IHSN
WVWC
RTCV
HTWN
SLFC
RSVG
TTLD
SPIL
NKRS
FVST
HHSY
LWPF
TRLC
SGPY
LLEF
EVTW
HNTY
GIRE
DTLR
RMSM
HCGC
QACD
IQCR
VEER
EGKT
DPLC
GMLK
HIPG
SVNT
ECST
RYMW
RRGW
NSSY
TIRK
GGER
TPNY
YIGD
QDHS
LAIT
RMHM

one-hybrid fitness for binding NBS DNA, 0.301:
ITRR

one-hybrid fitness for binding NBS DNA, 0.683:
QQHR

one-hybrid fitness for binding NBS DNA, 0.421:
RASS

one-hybrid fitness for binding NBS DNA, 0.981:
QRCR

one-hybrid fitness for binding NBS DNA, 0.371:
RYYS

one-hybrid fitness for binding NBS DNA, 0.38:
RTRY
